Results are given in words; binding and its absence hold for the method and conditions named. Some binding calls cover weakened binding; strength is not graded here. Values belong to the binder of their own block, whether it stands above or below them.
Key:
[1] = biological target: T1, Mpe1-TAPS (S. cerevisiae), P35728; assay: SEC; TAPS affinity purification from tagged yeast strain, then Superose 6 PC 3.2/30 in 20 mM HEPES pH 7.9, 150 mM KCl, 3 mM DTT, 0.5 mM Mg(OAc)2, 0.5 mM MnCl2; fractions on Coomassie-stained SDS-PAGE; conditions: remark: other sources report otherwise
T1 chain: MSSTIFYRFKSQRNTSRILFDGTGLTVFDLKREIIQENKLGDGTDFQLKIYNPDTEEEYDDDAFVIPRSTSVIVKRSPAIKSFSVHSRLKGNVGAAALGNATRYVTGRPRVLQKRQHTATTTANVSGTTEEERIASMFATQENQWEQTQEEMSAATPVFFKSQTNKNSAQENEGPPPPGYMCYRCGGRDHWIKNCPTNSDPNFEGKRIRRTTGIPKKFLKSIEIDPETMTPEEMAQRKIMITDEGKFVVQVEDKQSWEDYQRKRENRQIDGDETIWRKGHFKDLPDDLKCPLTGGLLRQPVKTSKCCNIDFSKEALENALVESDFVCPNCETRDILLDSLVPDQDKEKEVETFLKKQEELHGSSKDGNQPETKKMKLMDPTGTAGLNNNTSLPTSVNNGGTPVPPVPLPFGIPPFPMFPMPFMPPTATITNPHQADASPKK

[2] = biological target: Pap1-TAPS (S. cerevisiae), P29468; assay: as above; conditions: remark: other sources report otherwise

binding [1]: binds
B1: Yth1, Q06102 1-208 (protein)
chain: MSLIHPDTAKYPFKFEPFLRQEYSFSLDPDRPICEFYNSREGPKSCPRGPLCPKKHVLPIFQNKIVCRHWLRGLCKKNDQCEYLHEYNLRKMPECVFFSKNGYCTQSPDCQYLHIDPASKIPKCENYEMGFCPLGSSCPRRHIKKVFCQRYMTGFCPLGKDECDMEHPQFIIPDEGSKLRIKRDDEINTRKMDEEKERRLNAIINGEV

binding [1]: binds
B2: Fip1, P45976 1-327 (protein)
chain: MSSSEDEDDKFLYGSDSELALPSSKRSRDDEADAGASSNPDIVKRQKFDSPVEETPATARDDRSDEDIYSDSSDDDSDSDLEVIISLGPDPTRLDAKLLDSYSTAATSSSKDVISVATDVSNTITKTSDERLITEGEANQGVTATTVKATESDGNVPKAMTGSIDLDKEGIFDSVGITTIDPEVLKEKPWRQPGANLSDYFNYGFNEFTWMEYLHRQEKLQQDYNPRRILMGLLSLQQQGKLNSANDTDSNLGNIIDNNNNVNNANMSNLNSNMGNSMSGTPNPPAPPMHPSFPPLPMFGSFPPFPMPGMMPPMNQQPNQNQNQNSK

binding [2]: binds
B3: Mpe1, P35728 1-441 (protein)
chain: T1 chain
